The text below walks through data of the antibiotic and cytotoxicity screens of Wong et al. (2023).

Some of the results follow.

The assay relates to S. aureus RN4220. The assay is described as follows: growth inhibition call (relative growth <= 0.2). Conditions: 50 µM.
On to `CC(=O)c1cc(S(=O)(=O)c2ccc(C)cc2)c(CC[C@H](COC(=O)NCCCCCC(=O)NO)NC(=O)Nc2nnc[nH]2)o1`, for which the growth inhibition call was “inactive”.
The result for `Cc1noc(C)c1NC(=O)N(C)C[C@H]1OCCCC[C@@H](C)Oc2ccc(NS(=O)(=O)c3ccccc3)cc2C(=O)N([C@@H](C)CO)C[C@@H]1C` reads “inactive”; that for `CC(=N)NCCSCC[C@H](N)C(=O)O`, “inactive”.
The result for `CC(C)CC#Cc1ccc2c(c1)O[C@H](CN(C)C(=O)c1ccccn1)[C@@H](C)CN([C@H](C)CO)S2(=O)=O` reads “inactive”.
Next, `COc1ccc(S(=O)(=O)Nc2ccc3c(c2)C(=O)N([C@@H](C)CO)C[C@H](C)[C@@H](CN(C)S(C)(=O)=O)OCCCC[C@@H](C)O3)cc1`: “inactive”; `C[C@@H]1CN([C@H](C)CO)C(=O)c2cc(NC(=O)Cn3cnnn3)ccc2O[C@H]1CN(C)C(=O)Nc1ccc(F)cc1`: “inactive”; `C[C@H](O)C#Cc1ccc2c(c1)O[C@@H](CN(C)C(=O)Nc1ccccc1)[C@@H](C)CN([C@H](C)CO)S2(=O)=O`: “inactive”.
As for `COCCOC(=O)N1C(=O)[C@@]2(c3ccccc31)[C@H](c1ccc(OCCO)cc1)N1[C@H](c3ccccc3)[C@H](c3ccccc3)OC(=O)[C@H]1[C@@H]2C(=O)N1CCc2cc(OC)c(OC)cc2C1`, the growth inhibition call was “inactive”.
Next, `C[C@H]1CCCCO[C@H](CN(C)C(=O)Nc2ccccc2)[C@@H](C)CN([C@@H](C)CO)C(=O)c2cc(NC(=O)c3ccccc3)ccc2O1`: “inactive”; `CC(=O)NC1C(O)CC(O)(C(=O)O)OC1C(O)C(O)CO` (stereo unspecified): “inactive”; `COc1cccc(c1)CN1C[C@]2(CCN(CC2)S(=O)(=O)C)c2c(n(c3cc(ccc23)OC)C)[C@@H]1CO`: “inactive”.
